{"source": "PubChem BioAssay AID202", "about": "(DTP/NCI, 2004)", "system": "HT29 xenograft, nude mice, s.c., tumor weight T/C%", "assay": "NCI In Vivo Anticancer Drug Screen. Data for tumor model HT29;CX-1 Human Adenocarcinoma (MER+) (subcutaneous) in NU/NU Swiss (nude) mice", "conditions": "endpoint: optimum tumor weight change, schedule: Q04DX005 (ip), vehicle: Klucel (hydroxypropylcellulose) (HPC), higher = larger tumour", "procedure": "The antitumor activity of compounds was measured in mice bearing transplantable tumors. Survival or tumor size were measured and the results are expressed as the measurement made in the treated group (T) divided by the measurement made in the vehicle treated control group (C). The tumor model used in this assay is HT29;CX-1 Human Adenocarcinoma (MER+) (subcutaneous) in NU/NU Swiss (nude) mice", "note": "Certain results were filed several times, with different values. They are shown here; other results are not. There may be further records. Values given together are repeated measurements across runs, samples, wells, individuals or studies.", "data": [{"smiles": "CN(C)c1nc(N(C)C)nc(N(C)C)n1", "values": [{"measurement": "T/C", "setting": "dose: 60.0 mg/kg/injection", "value": "53 % of control and 114 % of control"}, {"measurement": "T/C", "setting": "dose: 120.0 mg/kg/injection", "value": "51 % of control and 102 % of control"}]}]}
